No constants are given. Whether binding was seen depends on the method and setting. Some binding calls cover weakened binding; strength is not graded here. For some of these results: Where a sequence is shown, tags or fusion partners need not be part of it.

For assay [1], the target named is T1, S. cerevisiae Gle1^CTD, purified alone (from His6-scGle1^CTD) (S. cerevisiae) (UniProt Q12315).
T1 sequence: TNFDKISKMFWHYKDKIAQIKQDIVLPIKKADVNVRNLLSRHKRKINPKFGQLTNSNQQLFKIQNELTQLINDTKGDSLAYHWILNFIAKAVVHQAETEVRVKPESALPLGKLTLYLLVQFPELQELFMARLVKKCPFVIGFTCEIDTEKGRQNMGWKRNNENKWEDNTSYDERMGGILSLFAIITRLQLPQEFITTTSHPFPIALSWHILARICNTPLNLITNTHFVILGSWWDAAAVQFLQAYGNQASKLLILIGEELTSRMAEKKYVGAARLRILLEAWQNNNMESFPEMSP
As to the kind of experiment: SEC; S. cerevisiae Gle1^CTD with Nup42^GBM and its variants; Superdex 200 10/300 GL or Superdex 75 10/300 GL; 20 mM TRIS (pH 8.0), 100 mM NaCl, 5 mM DTT; both purified.

In assay [2] the target is T2, S. cerevisiae Gle1 C-terminal domain (Gle1^CTD), co-expressed with Nup42^GBM (S. cerevisiae) (UniProt Q12315).
T2 sequence: T1 sequence
As to the kind of experiment: crystal structure; S. cerevisiae Gle1^CTD•Nup42^GBM, co-expressed and co-purified; 1.75 Å; both purified.

For assay [3], the target named is T3, H. sapiens Gle1 C-terminal domain (Gle1^CTD, residues 382–698) (human) (UniProt Q53GS7).
T3 sequence: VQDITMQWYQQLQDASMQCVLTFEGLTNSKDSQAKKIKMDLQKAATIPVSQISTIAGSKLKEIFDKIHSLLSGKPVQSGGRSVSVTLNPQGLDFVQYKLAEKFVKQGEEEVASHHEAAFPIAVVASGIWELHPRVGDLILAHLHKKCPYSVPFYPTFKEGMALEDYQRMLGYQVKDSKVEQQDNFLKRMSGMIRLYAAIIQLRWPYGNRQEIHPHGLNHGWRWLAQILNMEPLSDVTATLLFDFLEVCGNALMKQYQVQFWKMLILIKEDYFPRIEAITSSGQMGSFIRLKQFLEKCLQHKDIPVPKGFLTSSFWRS
Kind of assay: crystal structure; H. sapiens Gle1^CTD•Nup42^GBM•DDX19^∆N53, reconstituted from equimolar purified Gle1^CTD•Nup42^GBM and DDX19^∆N53; with ADP 3.6 Å or AMP-PNP•Mg^2+ 3.4 Å; both purified.

In assay [4] the target is T3, H. sapiens Gle1 C-terminal domain (Gle1^CTD, residues 382–698) (human). Kind of assay: crystal structure; H. sapiens Gle1^CTD•Nup42^GBM, co-expressed and co-purified; 2.8 Å; both purified.

Turning to ELADLAEETLKIDRANKFELGLVPDIPPPPALVA (domain or fragment, UniProt P49686 397-430) [S. cerevisiae Nup42^GBM F409D], in assay [1], the binding result was “binds”. In the case of ELADLAEETLKIFRANKFELGLVPDIPPPPALVA (domain or fragment, UniProt P49686 397-430) [S. cerevisiae Nup42 Gle1-binding motif (Nup42^GBM), co-expressed with Gle1^CTD], the binding entry in assay [2] was “binds”. Turning to ELADLAEETLKIFRANKFELGLVPDIPPPPALVA (domain or fragment, UniProt P49686 397-430) [S. cerevisiae Nup42^GBM, purified alone (from His6-SUMO-scNup42^GBM-His6)], the binding entry in assay [1] was “binds”.

For the molecule ELADLAEETLKIDRANKDELGLVPDIPPPPALVA (domain or fragment, UniProt P49686 397-430) [S. cerevisiae Nup42^GBM F409D/F414D], in assay [1], the binding entry is recorded as “no binding”. As for ELADLAEETLKIFRANKDELGLVPDIPPPPALVA (domain or fragment, UniProt P49686 397-430) [S. cerevisiae Nup42^GBM F414D], in assay [1], the binding entry was “no binding”. With IIATDNVLFTPRDKLTVEELEQFQSKKFTLGKIPLKPPPLELLNV (domain or fragment, UniProt O15504 379-423) [H. sapiens Nup42 Gle1-binding motif (Nup42^GBM, residues 379–423)], the binding result in assay [3] and in assay [4] was “binds” in each case.

The values above are taken from article PMC5998080, “Structural and functional analysis of mRNA export regulation by the nuclear pore complex” (Nature Communications, 2018).
